Experimental data from ChEMBL document CHEMBL4888484, “Replenishing the malaria drug discovery pipeline: Screening and hit evaluation of the MMV Hit Generation Library 1 (HGL1) against asexual blood stage Plasmodium falciparum ,using a nano luciferase reporter read-out” (2022).
The campaign covered roughly 150,000 compounds. About 540 (0.36%) showed an effect of 50% or more. This is one part of the list.

Tested on: Plasmodium falciparum
Assay: Primary screen in NF54 nanoGlo assay, in single point, at 2uM, 72h; a lower Z score goes with more inhibition
Type: functional, Erythrocyte
Conditions: timepoint 72 hour

Structure (SMILES) | % Inhibition [%] | Z score
CCOC(=O)N(C)CC(=O)NC1CCCC1 | -3 | 0.45
CC(C)(C)C[C@@H](CO)NC(=O)c1ccc(C2CCC2)cc1 | -8 | 0.88
Cc1csc(Cn2ccnc2-c2ccc(C(=O)O)cc2)n1 | 1 | -0.13
O=C(Cn1cccn1)N1CCC[C@H](Oc2ncccn2)C1 | 7 | -0.94
COc1ccc(OC)c2c1cc1n2C[C@@](C)(C(=O)NC2CCCC2)N(CCN2CCCC2)C1=O | 1 | -0.14
CC[C@H]1CN(S(=O)(=O)c2ccc(OC)cc2)CC[C@H]1CC(=O)NCc1ccccc1 | -18 | 2.85
COCCCn1ccc(NC(=O)NCCc2sc(C)nc2C)n1 | 1 | -0.16
CC(C)(C)c1cc(C(=O)N2CCC(O)(C(F)F)CC2)no1 | -12 | 1.89
CCC(CC)(CNC(=O)c1cc(S(N)(=O)=O)oc1Cl)OC | -1 | 0.24
COc1ccc(CC(=O)NCC2(O)CCCC2)cc1 | -9 | 1.6
Cc1nc(CN(C)Cc2ncon2)sc1C | -3 | 0.55
COC[C@@H]1CCC[C@@H]1NC(=O)Cc1cccc(O)c1 | 4 | -0.56
CCN1CCC(NC(=O)c2ccc3ccccc3c2)CC1 | -14 | 1.68
CCN=C(NCC)NCCc1nc(C)c(C)s1 | 0 | 0.07
O=C(CN(C(=O)COc1ccccc1)C1CC1)N(Cc1ccco1)C[C@H]1CCCO1 | -13 | 1.32
O=C(c1cc(-c2ccccc2)n[nH]1)N1CCC(N2CCC(Oc3ccccc3F)CC2)CC1 | -12 | 1.48
Cc1c(CN2C[C@H]3CCC[C@@H](C2)N(C)C3)[nH]c2ccccc12 | -7 | 1
CO[C@H]1CCOC[C@@H]1NC(=O)c1ccccc1Cc1ccc(C)c(F)c1 | 4 | -0.85
COc1ccc(-c2noc(-c3cccnc3N3CCN(c4ccccc4F)CC3)n2)cc1 | -5 | 0.71
CCN(CCC#N)C(=O)CNc1cc(NC(C)=O)c(F)cc1F | -1 | 0.1
O=c1c(NCc2nccn2C2CC2)cccn1CC(F)(F)F | -3 | 0.62
CCS(=O)(=O)N1CCCCCCN(C)C(=O)CC1 | 3 | -0.42
O=C(CCc1ccccc1)Nc1ccc(C(=O)c2ccncc2)cc1 | -9 | 1.01
C[C@@H](CC(N)=O)Nc1ncc(F)c(-c2ccsc2)n1 | -6 | 1.19
CC(=O)Nc1sc2c(c1CN1CCN(c3ccccc3)CC1)CCCC2 | -9 | 0.87
Cc1nc(C)c(C(=O)N(C)CCN(C)C(=O)OC(C)(C)C)o1 | -7 | 0.91
Cc1cccc(CN2[C@H](CNC(=O)C3CCOCC3)CN(C)C(=O)[C@@H]2C)c1 | 8 | -0.99

Structure (SMILES) | % Inhibition [%] | Z score
O=C1COc2ccc(S(=O)(=O)N3CCC[C@H]3C(=O)NC3CCCCCC3)cc2N1 | -2 | 0.25
O=C(Nc1ncc(Cc2ccccc2)s1)c1ccccc1OCc1ccccc1 | -10 | 1.16
O=C(NCc1csc2ncnn12)c1ccc(Oc2nccs2)cc1 | -1 | 0.16
O=C1c2ccc(O)cc2C(=O)N1c1ccc(N(c2ccccc2)c2ccc(N3C(=O)c4ccc(O)cc4C3=O)cc2)cc1 | 8 | -1.03
CCN(c1ccccc1)S(=O)(=O)c1cccc(C(=O)N(C)Cc2ccccc2OC)c1 | -1 | 0.27
O=C(N[C@@H](Cc1ccccc1)C(=O)O)c1ccc(Cl)cn1 | -10 | 1.28
CC(C)Cn1ncc(C(=O)OCc2ccccn2)c1C(F)F | -11 | 1.53
CC[C@H]1C(=O)NCCN1C(=O)Nc1ncc(CC(C)C)s1 | -9 | 1.37
COCCN1CCC(CN(Cc2ccncc2)C(=O)[C@H]2CC23CCCC3)CC1 | 2 | -0.28
O=C1C[C@]2(CCc3ccccc32)C(=O)N1Cc1ccc(CO)cc1 | 1 | -0.13
Cc1cnc(C2CN([C@@H](C)C(C)C)C2)n1Cc1cccnc1 | -6 | 0.77
COc1ccc(-c2cc3n(n2)CCCN(C(=O)Nc2ccc(C)c(F)c2)C3)cc1OC | -6 | 0.68
COc1ccccc1Nc1ncccc1C(=O)NCc1ccc(CS(N)(=O)=O)cc1 | 6 | -0.88
COc1cc(-c2cc(-c3scnc3C)nc(N)c2C#N)c(Cl)cc1O | 4 | -0.69
Cc1cc(C(=O)NCc2cnn(C)c2C)nc(N2CCOCC2)n1 | 34 | -1.09
Cc1ccc(-c2cc(C(=O)Nc3cccc4nsnc34)c3ccccc3n2)cc1C | 2 | -0.23
Cc1cc(C(=O)N(C)CCCC2CCCC2)cc(C)n1 | 13 | -1.77
COc1cc(C#N)ccc1OCC=C(C)C | 5 | -0.95
CC(C)c1noc(N2CC[C@H](N3CCCC3=O)C2)n1 | 5 | -0.75
N[C@H]1CCCCN(Cc2noc(-c3ccccc3)n2)C1 | 1 | -0.14
Cc1ccc(CNc2ccc(-c3nc(-c4ccccc4)no3)nn2)o1 | 12 | -1.37
Cc1nnc2n1CCN(C(=O)c1nccc3ccccc13)C2 | -1 | 0.13
CCc1nc(CN(C)C(=O)c2cccc(-c3ccc(N(C)C)cc3)c2)no1 | -10 | 1.4
CCc1ccc(-c2nccn2-c2ccc(Cc3nnc(C)[nH]3)cc2)nc1 | -15 | 2.2
N[C@H]1CCN2C(=O)c3cc(-c4ccccc4F)ccc3NC(=O)[C@H]12 | 32 | -3.67
COc1ccc(Nc2nc(C)c3nnn(-c4ccc(OC)c(Cl)c4)c3n2)cc1Cl | -11 | 1.67
C[C@@H](C(=O)NC1CCCC1)N1CCn2ccnc2C1 | -6 | 0.59
